Reference: patent US12285428B2 (IMBRIA PHARMACEUTICALS, INC., priority 2021, dated 2025)

Columns and labels:
[1] = system: healthy subjects; experiment: FIH study, single-dose MR part: safety and tolerability; type: in vivo, human
Excerpt: In the single-dose MR part, 1 group of 12 healthy subjects (all on active drug) was included. […] The MR formulation of IMB-1018972 to be administered on Day 13 under fed conditions was 1 of the 4 MR formulations administered on Days 1, 4, 7, and 10 under fasted conditions.

[2] = system: healthy subjects; experiment: FIH study, multiple-dose MR part: safety and tolerability; type: in vivo, human; settings: 5-day 200 mg 8-hour MR formulation of IMB-1018972 q12h, fed
Excerpt: In the multiple-dose MR part, 1 group of 12 healthy subjects (all on active drug) was included.

[3] = 50 mg 8-hour MR formulation of IMB-1018972, fasted
[4] = 200 mg 8-hour MR formulation of IMB-1018972, fasted
[5] = 200 mg 8-hour MR formulation of IMB-1018972, fed

COc1ccc(CN2CCN(CCOC(=O)c3cccnc3)CC2)c(OC)c1OC [IMB-1018972, 2-[4-[(2,3,4-trimethoxyphenyl)methyl]piperazin-1-yl]ethyl pyridine-3-carboxylate]
Number of TEAEs [1, 3]: 6
Subjects reporting TEAEs [1, 3]: 33.3%
Number of TEAEs [1, 4]: 6
Subjects reporting TEAEs [1, 4]: 41.7%
Number of TEAEs [1, 5]: 5
Subjects reporting TEAEs [1, 5]: 18.2%
Drug-related TEAEs ([1]; following the 200 mg 8-hour MR formulation of IMB-1018972, fed): No drug-related TEAEs
Tolerability [2]: well tolerated
